According to the supplement of paper PMC4967469:
The IC50 comes from the fitted curve, where viability falls to half of the control; where the fit passes the top or lowest dose, that dose stands as a limit. AUC sums up the same curve from the lowest dose to the 256-fold higher top dose; it is 1 without any effect and falls as sensitivity rises. For part of these data: Any top dose called inferred was calculated from the reported fits.

Tests used:
Assay in all cases: Viability of human cancer cell lines after 72 h of drug (GDSC screen)
[1] = compound: CCC(=O)N1CCN(c2ccc(-n3c(=O)ccc4cnc5ccc(-c6cnc7ccccc7c6)cc5c43)cc2C(F)(F)F)CC1 [JW-7-52-1]; settings: top dose 1.2 µM; top dose inferred
Method: (§1)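 Human cancer cell lines in 384-well plates, medium with 10% serum, drug for 72 h over a 256-fold dose range (nine 2-fold or five 4-fold steps up to the top dose). Adherent lines were fixed and stained with the nucleic acid dye Syto60, suspension lines read with resazurin; signal relative to control wells, capped at 0 and 100%. One two-parameter sigmoid per drug and line, fitted in a mixed model over all curves with the slope shared within a line.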

[2] = compound: CCCC[C@@H](C=O)NC(=O)[C@H](CC(C)C)NC(=O)[C@H](CC(C)C)NC(=O)OCc1ccccc1 [Z-LLNle-CHO]; settings: top dose 2.56 µM; top dose inferred
Method: as §1

[3] = compound: CN1CCc2c(c3ccccc3n2Cc2ccc(C(=O)NO)cc2)C1 [Tubastatin A]; settings: top dose 20 µM
Method: as §1

[4] = compound: CO[C@H]1C[C@@H]2CC[C@@H](C)[C@@](O)(O2)C(=O)C(=O)N2CCCC[C@H]2C(=O)O[C@H]([C@H](C)C[C@@H]2CC[C@@H](O)[C@H](OC)C2)CC(=O)[C@H](C)/C=C(\C)[C@@H](O)[C@@H](OC)C(=O)[C@H](C)C[C@H](C)/C=C/C=C/C=C/1C [Rapamycin]; settings: top dose 0.1 µM; top dose inferred
Method: as §1

[5] = compound: COc1cc2c(Oc3ccc(NC(=O)C4(C(=O)Nc5ccc(F)cc5)CC4)cc3F)ccnc2cc1OCCCN1CCOCC1 [XL-880]; settings: top dose 5.12 µM; top dose inferred
Method: as §1

[6] = compound: Cn1nnc2c(C(N)=O)ncn2c1=O [Temozolomide]; settings: top dose 30 µM
Method: as §1

[7] = compound: O=C(NOCC1CC1)c1ccc(F)c(F)c1Nc1ccc(I)cc1Cl [CI-1040]; settings: top dose 10 µM; top dose inferred
Method: as §1

[8] = compound: Oc1ccc2ccccc2c1SSc1c(O)ccc2ccccc12 [IPA-3]; settings: top dose 32 µM; top dose inferred
Method: as §1

Cell Line	AUC [1]	IC50 [1] [nM]	AUC [2]	IC50 [2] [nM]	AUC [3]	IC50 [3] [nM]	AUC [4]	IC50 [4] [nM]	AUC [5]	IC50 [5] [nM]	AUC [6]	IC50 [6] [nM]	AUC [7]	IC50 [7] [nM]	AUC [8]	IC50 [8] [nM]
MHH-PREB-1 (B-cell leukaemia, suspension)	0.296	21.5	0.877	2120	0.83	10800	0.682	18.9	0.524	370	0.972	> 30000	0.988	> 10000	0.582	3270
IST-SL1 (small cell lung carcinoma, semi-adherent)	0.758	426	0.804	1320	0.742	6310	0.912	> 100	0.495	311	0.968	> 30000	0.924	> 10000	0.937	> 32000
ME-1 (acute myeloid leukaemia, suspension)	0.817	731	0.817	1560	0.764	7790	0.936	> 100	0.86	4800	0.984	> 30000	0.611	1290	0.966	> 32000
SUP-M2 (anaplastic large cell lymphoma, suspension)	0.638	163	0.696	488	0.746	5110	0.949	> 100	0.528	374	0.922	27300	0.904	7650	0.889	21600
NCI-H209 (small cell lung carcinoma, suspension)	0.669	231	0.976	> 2560	0.986	> 20000	0.762	38.2	0.699	1210	0.976	> 30000	0.907	> 10000	0.984	> 32000
LU-134-A (small cell lung carcinoma, suspension)	0.773	497	0.89	> 2560	0.939	> 20000	0.969	> 100	0.559	470	0.973	> 30000	0.974	> 10000	0.987	> 32000
NU-DUL-1 (B-cell lymphoma, suspension)	0.505	77.2	0.805	1000	0.783	6740	0.784	33.9	0.503	326	0.984	> 30000	0.857	5730	0.713	6920
BB30-HNC (head and neck, adherent)	0.462	59.2	0.78	1030	0.912	> 20000	0.813	52.8	0.531	387	0.971	> 30000	0.722	2630	0.875	30300
IMR-5 (neuroblastoma, adherent)	0.556	104	0.834	1310	0.895	17500	0.992	> 100	0.592	546	0.978	> 30000	0.963	> 10000	0.844	17700
COLO-824 (breast, adherent)	0.776	487	0.946	> 2560	0.979	> 20000	0.936	> 100	0.719	1360	0.982	> 30000	0.987	> 10000	0.951	> 32000
CA46 (Burkitt lymphoma, suspension)	0.786	560	0.939	> 2560	0.579	2090	0.967	> 100	0.521	366	0.983	> 30000	0.946	> 10000	0.61	4110
D-502MG (glioma, adherent)	0.959	> 1200	0.972	> 2560	0.966	> 20000	0.955	> 100	0.597	686	0.974	> 30000	0.834	> 10000	0.972	> 32000
CMK (acute myeloid leukaemia, suspension)	0.196	11.4	0.773	849	0.788	7330	0.824	47.8	0.686	967	0.979	> 30000	0.944	> 10000	0.579	3170
SW962 (urogenital system, adherent)	0.436	48	0.778	1310	0.963	> 20000	0.822	78.2	0.581	562	0.977	> 30000	0.803	6440	0.862	> 32000
KS-1 (glioma, adherent)	0.285	15.7	0.756	1080	0.878	> 20000	0.222	0.762	0.505	330	0.884	> 30000	0.801	6330	0.708	9060
EB-3 (Burkitt lymphoma, suspension)	0.432	47.5	0.736	857	0.849	19000	0.673	20.6	0.698	1280	0.977	> 30000	0.954	> 10000	0.749	11900
LU-165 (small cell lung carcinoma, suspension)	0.831	889	0.947	> 2560	0.951	> 20000	0.969	> 100	0.749	1840	0.987	> 30000	0.988	> 10000	0.987	> 32000
BB49-HNC (head and neck, adherent)	0.572	128	0.789	1680	0.969	> 20000	0.928	> 100	0.726	1850	0.968	> 30000	0.786	6370	0.82	29000
MONO-MAC-6 (acute myeloid leukaemia, suspension)	0.509	79.3	0.757	933	0.739	6310	0.863	95.2	0.101	< 20	0.927	> 30000	0.893	> 10000	0.907	> 32000
EJM (lymphoid neoplasm, semi-adherent)	0.818	543	0.791	951	0.912	> 20000	0.951	> 100	0.725	1230	0.988	> 30000	0.909	> 10000	0.869	21900
SF539 (glioma, adherent)	0.854	798	0.743	728	0.917	> 20000	0.118	0.447	0.593	558	0.966	> 30000	0.913	> 10000	0.772	11100
CESS (acute myeloid leukaemia, suspension)	0.367	34.1	0.703	541	0.811	8790	0.595	10.9	0.604	591	0.963	> 30000	0.908	> 10000	0.719	7500
CCRF-CEM (lymphoblastic leukaemia, suspension)	0.385	38.2	0.753	736	0.826	9630	0.473	5.35	0.486	295	0.968	> 30000	0.797	3880	0.552	2700
OCI-AML2 (acute myeloid leukaemia, suspension)	0.335	29.7	0.804	918	0.947	> 20000	0.981	> 100	0.477	282	0.962	> 30000	0.231	135	0.68	5510
KY821 (leukaemia, suspension)	0.674	214	0.793	1000	0.967	> 20000	0.989	> 100	0.786	1900	0.982	> 30000	0.759	3080	0.93	> 32000
RPMI-6666 (Hodgkin lymphoma, suspension)	0.671	250	0.719	769	0.795	11500	0.644	17.1	0.449	226	0.954	> 30000	0.922	> 10000	0.874	> 32000
UACC-257 (melanoma, adherent)	0.565	118	0.751	1030	0.935	> 20000	0.971	> 100	0.739	1850	0.945	> 30000	0.575	1060	0.951	> 32000
